From a collection of fitness landscapes (doi:10.1016/j.celrep.2020.107928)
In all, about 81,000 sequences were measured (“one-hybrid fitness for binding NBS DNA”: median about -0.1, highest 2% from about 0.36 on). The list shows a part of the results.

B1: Caulobacter ParB omega fusion; a variant is named by its letters at X, in order, B8GW30 (parent)
chain: MESVVVGEPGMSEGRRGLGRGLSALLGEVDAAPAQAPGEQLGGSREAPIEILQRNPDQPRRTFREEDLEDLSNSIREKGVLQPILVRPSPDTAGEYQIVAGERAWRAAQRAGLKTVPIMVRELDDLAVLEIGIIENVQRADLNVLEEALSYKVLMEKFERTQENIAQTIGKSXSHVANXMRLLXLPDEVQSYLVSGELTAXHARAIAAAADPVALAKQIIEGGLSVRETEALARKAPNLSAGKSKGGRPPRVKDTDTQALESDLSSVLGLDVSIDHRGSTGTLTITYATLEQLDDLCNRLTRGI

Variants of: B1
Assay: one-hybrid fitness for binding NBS DNA (the Noc-binding site; scaled: cognate 1, non-cognate 0); higher = stronger binding
Settings: with NBS DNA site
In short: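 In E. coli USO, a HIS3 reporter with its site placed 19 bp from the promoter was used to select Caulobacter ParB variants randomised at four specificity codons. Growth lasted 48 hours at 37°C on histidine-free M9 containing 0.1 mM IPTG and 5 mM 3-AT. Fitness was taken as the log change in variant-to-wild-type read ratio from Illumina sequencing of pre- and post-selection plasmids, rescaled between the non-cognate and cognate sites.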

FTHW and RYWE cannot be ordered by “one-hybrid fitness for binding NBS DNA” value: at most 0.2 for the first, at most 0.2 for the second.

NSLY and CSLC cannot be ordered by “one-hybrid fitness for binding NBS DNA” value: at most 0.2 for the first, at most 0.2 for the second.

MHPW and VKVS cannot be ordered by “one-hybrid fitness for binding NBS DNA” value: at most 0.2 for the first, at most 0.2 for the second.

RYIY and SSLG cannot be ordered by “one-hybrid fitness for binding NBS DNA” value: at most 0.2 for the first, at most 0.2 for the second.

GIIW and PKCV cannot be ordered by “one-hybrid fitness for binding NBS DNA” value: at most 0.2 for the first, at most 0.2 for the second.

TVTV and KHKG cannot be ordered by “one-hybrid fitness for binding NBS DNA” value: at most 0.2 for the first, at most 0.2 for the second.

SWYE and IHNR cannot be ordered by “one-hybrid fitness for binding NBS DNA” value: at most 0.2 for the first, at most 0.2 for the second.

VIRD and SIHT cannot be ordered by “one-hybrid fitness for binding NBS DNA” value: at most 0.2 for the first, at most 0.2 for the second.

RPWI and TEKG cannot be ordered by “one-hybrid fitness for binding NBS DNA” value: at most 0.2 for the first, at most 0.2 for the second.

FPPH and RHCQ cannot be ordered by “one-hybrid fitness for binding NBS DNA” value: at most 0.2 for the first, at most 0.2 for the second.

Compared with QIFR, RHFW is lower in “one-hybrid fitness for binding NBS DNA” value: 0.301 for the first, at most 0.2 for the second.

TEGS and CNRM cannot be ordered by “one-hybrid fitness for binding NBS DNA” value: at most 0.2 for the first, at most 0.2 for the second.

TSAF and SMPA cannot be ordered by “one-hybrid fitness for binding NBS DNA” value: at most 0.2 for the first, at most 0.2 for the second.

KTSG and DAHL cannot be ordered by “one-hybrid fitness for binding NBS DNA” value: at most 0.2 for the first, at most 0.2 for the second.

ITFR and KFYS cannot be ordered by “one-hybrid fitness for binding NBS DNA” value: at most 0.2 for the first, at most 0.2 for the second.

GDNC and GRRT cannot be ordered by “one-hybrid fitness for binding NBS DNA” value: at most 0.2 for the first, at most 0.2 for the second.

DDVF and TDYG cannot be ordered by “one-hybrid fitness for binding NBS DNA” value: at most 0.2 for the first, at most 0.2 for the second.

DVFV and QYHW cannot be ordered by “one-hybrid fitness for binding NBS DNA” value: at most 0.2 for the first, at most 0.2 for the second.

RRLK and GFYT cannot be ordered by “one-hybrid fitness for binding NBS DNA” value: at most 0.2 for the first, at most 0.2 for the second.

HGDC and CSWL cannot be ordered by “one-hybrid fitness for binding NBS DNA” value: at most 0.2 for the first, at most 0.2 for the second.

HYRL and PLNS cannot be ordered by “one-hybrid fitness for binding NBS DNA” value: at most 0.2 for the first, at most 0.2 for the second.

CIHG and WPYG cannot be ordered by “one-hybrid fitness for binding NBS DNA” value: at most 0.2 for the first, at most 0.2 for the second.

Going from KKNR to GHTP, the “one-hybrid fitness for binding NBS DNA” value falls from 0.34 to at most 0.2.

DLER and QKLW cannot be ordered by “one-hybrid fitness for binding NBS DNA” value: at most 0.2 for the first, at most 0.2 for the second.

LMAE and DRHS cannot be ordered by “one-hybrid fitness for binding NBS DNA” value: at most 0.2 for the first, at most 0.2 for the second.

HSKG and TVRY cannot be ordered by “one-hybrid fitness for binding NBS DNA” value: at most 0.2 for the first, at most 0.2 for the second.

IDTT and VRMC cannot be ordered by “one-hybrid fitness for binding NBS DNA” value: at most 0.2 for the first, at most 0.2 for the second.

EPIT and AVHG cannot be ordered by “one-hybrid fitness for binding NBS DNA” value: at most 0.2 for the first, at most 0.2 for the second.

RPTH and WGPC cannot be ordered by “one-hybrid fitness for binding NBS DNA” value: at most 0.2 for the first, at most 0.2 for the second.

YSQL and KMRC cannot be ordered by “one-hybrid fitness for binding NBS DNA” value: at most 0.2 for the first, at most 0.2 for the second.

VTQL and AKDQ cannot be ordered by “one-hybrid fitness for binding NBS DNA” value: at most 0.2 for the first, at most 0.2 for the second.

VAWG and ACTY cannot be ordered by “one-hybrid fitness for binding NBS DNA” value: at most 0.2 for the first, at most 0.2 for the second.

ASAR and QYGV cannot be ordered by “one-hybrid fitness for binding NBS DNA” value: at most 0.2 for the first, at most 0.2 for the second.

TVIA and NESF cannot be ordered by “one-hybrid fitness for binding NBS DNA” value: at most 0.2 for the first, at most 0.2 for the second.

EPYR and ARDD cannot be ordered by “one-hybrid fitness for binding NBS DNA” value: at most 0.2 for the first, at most 0.2 for the second.

GIPG and RSTY cannot be ordered by “one-hybrid fitness for binding NBS DNA” value: at most 0.2 for the first, at most 0.2 for the second.

SLVD and RQND cannot be ordered by “one-hybrid fitness for binding NBS DNA” value: at most 0.2 for the first, at most 0.2 for the second.

Compared with EAFM, QCRS is higher in “one-hybrid fitness for binding NBS DNA” value: at most 0.2 for the first, 0.748 for the second.

CGDW and RYDS cannot be ordered by “one-hybrid fitness for binding NBS DNA” value: at most 0.2 for the first, at most 0.2 for the second.

VSIS and PWMR cannot be ordered by “one-hybrid fitness for binding NBS DNA” value: at most 0.2 for the first, at most 0.2 for the second.

RWYI and YYVR cannot be ordered by “one-hybrid fitness for binding NBS DNA” value: at most 0.2 for the first, at most 0.2 for the second.

WAYC and VRGA cannot be ordered by “one-hybrid fitness for binding NBS DNA” value: at most 0.2 for the first, at most 0.2 for the second.

SVKY and ACCM cannot be ordered by “one-hybrid fitness for binding NBS DNA” value: at most 0.2 for the first, at most 0.2 for the second.

HYAI and HWRK cannot be ordered by “one-hybrid fitness for binding NBS DNA” value: at most 0.2 for the first, at most 0.2 for the second.

RSNQ and QIVD cannot be ordered by “one-hybrid fitness for binding NBS DNA” value: at most 0.2 for the first, at most 0.2 for the second.

CMST and AVCL cannot be ordered by “one-hybrid fitness for binding NBS DNA” value: at most 0.2 for the first, at most 0.2 for the second.

YSTP and CKDT cannot be ordered by “one-hybrid fitness for binding NBS DNA” value: at most 0.2 for the first, at most 0.2 for the second.

SEYQ and ADNF cannot be ordered by “one-hybrid fitness for binding NBS DNA” value: at most 0.2 for the first, at most 0.2 for the second.

HRDT and LREV cannot be ordered by “one-hybrid fitness for binding NBS DNA” value: at most 0.2 for the first, at most 0.2 for the second.
